Molecular target: T1, 6xHis-rMERTK(571–999), full-length human MERTK cytoplasmic domain (human, UniProt Q12866 571-999, autophosphorylated on tyrosine (incubated with ATP/MgCl2); sites Y749, Y753, Y754 were mapped on rMERTK571–864, not on this construct)
T1 construct: Expressed from the pET28a-LIC vector; also called MERTK intracellular domain; source: E. coli BL21 DE3 Gold, purified (Ni2+-NTA, Sephacryl S-200 HR), autophosphorylated with 10 mM ATP, 10 mM MgCl2
T1 sequence (looked up): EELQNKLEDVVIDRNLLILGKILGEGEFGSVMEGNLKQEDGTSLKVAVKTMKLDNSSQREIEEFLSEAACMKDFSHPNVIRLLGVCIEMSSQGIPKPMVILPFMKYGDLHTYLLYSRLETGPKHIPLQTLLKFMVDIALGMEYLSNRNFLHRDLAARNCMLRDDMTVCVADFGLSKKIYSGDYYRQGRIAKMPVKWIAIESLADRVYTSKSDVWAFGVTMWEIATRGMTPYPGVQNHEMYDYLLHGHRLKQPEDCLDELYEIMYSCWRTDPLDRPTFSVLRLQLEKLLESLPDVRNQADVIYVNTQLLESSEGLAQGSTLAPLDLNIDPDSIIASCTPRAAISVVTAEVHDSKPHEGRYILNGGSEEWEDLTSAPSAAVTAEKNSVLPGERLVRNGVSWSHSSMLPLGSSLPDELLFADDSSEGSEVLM
Assay: pull-down; Ni2+-NTA pull down: GST-rSH2-domain protein (10 µg) incubated with autophosphorylated 6xHis-rMERTK571–999 (10 µg) in 50 mM NaH2PO4, 300 mM NaCl, 10 mM imidazole, 0.1 µM PMSF, 1 h at 4°C, then Ni2+-NTA resin 0.5 h; washes with 50 mM imidazole, elution with 500 mM imidazole; Coomassie-stained SDS gels; negative control omits rMERTK
Conditions: both partners purified

B1: SRC GST-SH2 domain fusion protein (domain or fragment)
chain: not shown
notes: pGEX2T construct from a library of SH2 domains; also called rSH2-domain fusion protein corresponding to SRC; recombinant SRC; source: E. coli BL21 DE3 Gold, purified (glutathione-agarose, Sephacryl S-200 HR)
- binding result: binds
